Measurements published in PMC12352619, “Phylogeny-guided discovery of a promiscuous P450 macrocyclase for the production of diverse atropopeptides” (Chemical Science, 2025).

Tested on: ESKAPE pathogens
Assay: Disk diffusion antimicrobial assay
Details: 6 mm paper disks loaded with 5 μL of 2.56 mg/mL in DMSO, 37 °C, 16 h, all ESKAPE pathogens

Substance	antimicrobial activity (size of the inhibition zone)
H-WYQWL-OH (also: sidechain bridge or staple (positions not given here)) [compound 3, scabrirubin CB-3]	None of the compounds showed antimicrobial activity
H-WYIW-OH (also: sidechain bridge or staple (positions not given here)) [compound 1, scabrirubin CB-1]	None of the compounds showed antimicrobial activity
H-WALY-OH (also: sidechain bridge or staple (positions not given here)) [compound 4, scabrirubin CB-4]	None of the compounds showed antimicrobial activity
